Data as given in PubChem BioAssay AID504845 (National Center for Advancing Translational Sciences (NCATS), 2011).
Out of some 390,000 compounds screened, about 150 (0.038%) were called active. The shares of active, inactive and inconclusive entries below differ from those in the screen. Calls follow the shape of the dose curve; as a rule, active = well fitted inhibition curve with a large enough effect; inconclusive = small, poorly fitted or top-dose-only effect; inactive = no such curve, though single readings can be large or run the other way. Potencies beside an inconclusive call are fits to weak or partial responses and may not hold up.

Molecular target: Regulator of G-protein signaling 4 (Homo sapiens) (UniProt P49798)
Sequence of UniProt P49798 (P49798 whole entry, looked up): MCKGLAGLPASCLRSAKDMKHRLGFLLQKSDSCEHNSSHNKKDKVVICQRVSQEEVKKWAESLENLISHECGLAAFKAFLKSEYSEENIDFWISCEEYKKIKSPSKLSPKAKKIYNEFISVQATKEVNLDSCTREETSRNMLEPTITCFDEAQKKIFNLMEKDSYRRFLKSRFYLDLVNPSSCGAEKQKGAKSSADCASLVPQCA
Experiment: Inhibitors of Regulator of G Protein Signaling (RGS) 4: qHTS; also: nearly all actives have a fitted effect of over 75% in size
Conditions: Transcreener GDP fluorescence polarization, RGS4-accelerated GTP hydrolysis; series mostly up to 114 µM; activity change, negative = inhibition: at the top concentration
Summary of the method: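 MLSMR compounds (23 nl, pin-transferred) preincubated 10 min at room temperature with a 500nM (2x) first reagent, then RGS4 at 900nM (2x) plus Transcreener GDP mix added; fluorescence polarization (620/688 nm) read before and after 90 min at 30 °C.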
% is scaled to controls: 0 for no effect and ±100 for the full control effect; potency is read from the fitted curve at half-maximal effect; tags tell the direction and shape of the fitted curve.

SMILES | Potency | activity change, negative = inhibition
COC(=O)CSc1cc([N+](=O)[O-])ccc1NC(=O)OC | inconclusive: 50.1 µM [inhibitor, partial curve, poor fit] | –
O=C(COC(=O)/C=C/c1ccccc1[N+](=O)[O-])NC1CC1 | inconclusive: 35.5 µM [inhibitor, full curve, poor fit] | –
CCc1c(C)sc(NC(=S)NC(C)C2CCCO2)c1C(=O)OC (configuration not stated) | inconclusive: 79.4 µM [inhibitor, single point] | –
COc1ccccc1C(=O)Nc1ccccc1SC(=O)c1ccccc1OC | – | inactive: -51.4%
N#Cc1c(N)nc2c(c1N)CC(=O)N2c1ccc(Cl)cc1 | inconclusive: 89.1 µM [inhibitor, single point] | –
O=C(N/N=C/c1ccc(Cl)cc1)c1sccc1OCc1ccc(F)cc1 | – | inactive: -27.4%
CSCCC(NC(=O)c1ccccc1Cl)C(=O)NNC(=O)c1ccncc1 (configuration not stated) | – | inactive: 5.37%
COc1ccc(C(=O)NC(=S)Nc2cccc3ncccc23)cc1[N+](=O)[O-] | inconclusive: 17.8 µM [inhibitor, full curve, poor fit] | –
COc1ccc(NC(=O)CCNC(=O)Cn2ccc3ccccc3c2=O)cc1OC | inconclusive: 89.1 µM [inhibitor, single point] | –
OCCn1c(-c2ccc(F)cc2)csc1=Nc1ccccc1 | – | inactive: -24.4%
Oc1c(Br)cc(Br)cc1/C=N/NC(=S)N[C@H]1CC2C=CC1C2 (some centres not stated) | inconclusive: 79.4 µM [inhibitor, single point] | –
O=C(OC12CC3CC(CC(C3)C1)C2)c1ccc(NCc2cc(O)ccc2O)cc1 | inconclusive: 89.1 µM [inhibitor, single point] | –
O=C1CCCN2N=C(SCC(=O)Nc3ccc([N+](=O)[O-])cc3)SC2=N1 | inconclusive: 89.1 µM [inhibitor, single point] | –
Cc1sc2nc(SCC(=O)Nc3cccc(C(=O)O)c3)[nH]c(=O)c2c1C | inconclusive: 89.1 µM [inhibitor, single point] | –
Cc1nn(CC2CC2)c(=O)n1-c1ccc(F)cc1 | inconclusive: 100 µM [inhibitor, single point] | –
CCOC(=O)CC(NC(=O)c1cc2cc(OC)ccc2oc1=O)c1ccc(OC)cc1 (configuration not stated) | – | inactive: 0.787%
CC(=O)NS(=O)(=O)c1ccc(NC(=S)NC(=O)C(C)C)cc1 | inconclusive: 56.2 µM [inhibitor, single point] | –
CCCCCCCCCCCCCCCCOC[C@H](COP(=O)([O-])OCC[N+](C)(C)C)OC(=O)NC | inconclusive: 0.299 µM [inhibitor, full curve, poor fit] | –
Oc1ccc(/C=N/N2CCOCC2)c(O)c1O | inconclusive: 79.4 µM [inhibitor, partial curve, poor fit] | –
CN(C)c1ccc(C=NNC(=O)c2cccnc2)cc1 | inconclusive: 79.4 µM [inhibitor, partial curve, poor fit] | –
Cc1ccc(CN(C)C(=O)c2cc(COc3ccc(F)cc3Cl)on2)o1 | inconclusive: 31.6 µM [inhibitor, partial curve, poor fit] | –

SMILES | Potency | activity change, negative = inhibition
CCCC1(C)C(C#N)(C#N)C1(C#N)C#N | active: 9.47 µM | –
CC(=O)c1cccc(NC(=O)c2ccc3c(c2)CCCC3)c1 | – | inactive: -16.3%
O=C(Cc1coc2cc3c(cc12)CCC3)NC1CCCCCCC1 | inconclusive: 89.1 µM [inhibitor, single point] | –
N[C@@H](Cc1ccc(O)c(I)c1)C(=O)O | inconclusive: 16.8 µM [inhibitor, partial curve, poor fit] | –
COc1ccc2c(c1)C(C)=CC(C)(C)N2S(=O)(=O)c1ccc(C)cc1 | inconclusive: 79.4 µM [inhibitor, partial curve, poor fit] | –
COc1cccc(-c2ccc(NC(=O)C3CCCN(Cc4ccco4)C3)cc2)c1 (configuration not stated) | – | inactive: -22.7%
N=C1C(c2ccccc2)=C(O)CN1c1cccc(O)c1 | inconclusive: 79.4 µM [inhibitor, partial curve, poor fit] | –
COC(=O)c1nc(NC(=S)NC(=O)c2cccs2)sc1C | – | inactive: -27.8%
Cn1cc(C(c2ccccc2OCC(=O)O)c2cn(C)c3ccccc23)c2ccccc21 | inconclusive: 20 µM [inhibitor, full curve, poor fit] | –
C#CCOCCOCCOCCNc1nc(N2CCN(C(=O)CCCCCCCCCCNC(=O)[C@H](CCCCN)n3cc(C[C@@H](C)CC)nn3)CC2)nc(N2CCN(C(=O)CCCCCCCCCCNC(=O)[C@H](CCCCN)n3cc(C[C@@H](C)CC)nn3)CC2)n1 | inconclusive: 35.5 µM [inhibitor, partial curve, poor fit] | –
C=C(C)CN(CC)C(=O)CC1C(=O)NCCN1Cc1c(F)cccc1Cl (configuration not stated) | inconclusive: 79.4 µM [inhibitor, partial curve, poor fit] | –
CCOc1ccc(-n2c(-c3ccc(Cl)cc3)c[n+]3c2SCC3)cc1 | – | inactive: -11.6%
C=CCn1nnnc1-c1cccc(Cl)c1 | inconclusive: 79.4 µM [inhibitor, partial curve, poor fit] | –
C1CCCCCC(=NNc2nn[nH]n2)CCCCC1 | inconclusive: 70.8 µM [inhibitor, partial curve, poor fit] | –
Cc1[nH]c2ccccc2c1C(=O)CN1CCN(C/C=C/c2ccccc2)CC1 | – | inactive: -9.3%
O=C(COc1cc2oc(=O)c3c(c2cc1Cl)CCC3)Nc1ccccn1 | – | inactive: 18.3% [at 56.9 µM]
COc1ccc(CNC(=O)Cn2ccc3cc(S(=O)(=O)N4CCCCCC4)ccc32)cc1OC | – | inactive: 11.1%
S=c1[nH]nc(SCc2ccccc2)c2[nH]cnc12 | inconclusive: 56.2 µM [inhibitor, partial curve, poor fit] | –
Cc1nnc(NC(=O)CSc2nnc(-c3ccoc3C)n2CC(C)C)s1 | inconclusive: 50.1 µM [inhibitor, partial curve, poor fit] | –
COc1ccc2ccc(O)c(CN(C)CC(=O)Nc3ccccc3C(F)(F)F)c2c1 | – | inactive: -26.6%
Cc1c(C(=O)N2CCC(Cc3ccccc3)CC2)cccc1[N+](=O)[O-] | inconclusive: 70.8 µM [inhibitor, partial curve, poor fit] | –
